Measured values taken from PubChem BioAssay AID1347120 (National Center for Advancing Translational Sciences (NCATS), 2019).
The campaign covered roughly 390,000 compounds. About 930 (0.24%) were called active. The inconclusive results got no clear call from the source; some entries with a clear call stand among them for comparison. The call rests on the fitted dose curve; in most records, active means well fitted activation curve with a large enough effect; inconclusive means small, poorly fitted or top-dose-only effect; inactive means no such curve, though single readings can be large or run the other way. Potencies beside an inconclusive call are fits to weak or partial responses and may not hold up.

Test: qHTS for Suppressors of FUS Proteinopathy: Primary screen using FUS-linked yeast assay; further: nearly all actives have a fitted effect of over 55% in size;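 on growth rescue (activation): plate controls were DMSO vehicle for no effect and reference control for full effect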
Settings: S. cerevisiae FUS-expressing, OD600, 24 h; Potency: growth rescue; growth rescue (activation): at 76.6 µM (top of the series)
Outline: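 Steps: raffinose overnight preculture; dilution to OD 0.005 in 2% galactose minimal medium; compound addition (concentration series); 24hr at 30C, 99% humidity; absorbance read at 600 nm.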
Potency means the concentration at half of the fitted maximal effect; tags describe the fitted curve by direction and shape.

Row | SMILES | Potency | growth rescue (activation)
1 | CCN(CC)S(=O)(=O)c1ccc(NC2c3ncccc3C(=O)N2Cc2ccccc2)cc1 (stereo unspecified) | inconclusive: 50.1 µM [activator, single point] | –
2 | COc1ccc(C)cc1N1C(=N)/C(=C2/Nc3ccccc3S2)C(c2ccccc2)C1=O (stereo unspecified) | inconclusive: 50.1 µM [activator, single point] | –
3 | Cc1cc(NCCCO)n2nc(-c3cccs3)cc2n1 | – | inactive: 7.8%
4 | Cc1c(Cl)ccc2sc(N3CCN(C(=O)C4CC4)CC3)nc12 | inconclusive: 44.7 µM [activator, single point] | –
5 | Cc1nc(N2CCN(c3ccccn3)CC2)c2c(C)c(C(=O)Nc3ccc(F)cc3F)sc2n1 | – | inactive: 5.26%
6 | CC(C)c1ccc(OC(=O)NCCO)cc1 | inconclusive: 11.2 µM [activator, single point] | –
7 | Cc1cccc2cc(CN(CCc3ccccc3)C(=O)N3CCOCC3)c3nnnn3c12 | – | inconclusive: 48.1% [activator]
8 | COc1ccc(-c2ccc3c(c2)S(=O)(=O)c2cccc(C(=O)N4CCN(c5ccccn5)CC4)c2C3=O)cc1OC | inconclusive: 28.2 µM [activator, single point] | –
9 | CCOC(=O)Cc1c(C(=O)OCC)nnc2c(-c3ccccc3)c(C)nn12 | inconclusive: 28.2 µM [activator, partial curve, poor fit] | –
10 | COc1cccc(S(=O)(=O)N(C)C[C@H]2Oc3cc(Br)ccc3S(=O)(=O)N([C@@H](C)CO)C[C@H]2C)c1 | inconclusive: 22.4 µM [activator, single point] | –
11 | Cc1ccnc(Nc2nc(-c3ccc(O)c(O)c3)cs2)c1 | inconclusive: 50.1 µM [activator, single point] | –
12 | CCOC(=O)c1ccccc1NC(=O)COC(=O)CC(C)(C)CC1=NS(=O)(=O)c2ccccc2N1 | inconclusive: 31.6 µM [activator, partial curve, poor fit] | –
13 | O=C1N/C(=C\c2ccc(O)cc2)C(=O)c2ccccc21 | inconclusive: 28.2 µM [activator, single point] | –
14 | COc1ccc(CC(=O)Nc2sc3c(c2C(N)=O)CCCC3)cc1 | – | inactive: 23.5%
15 | O=C1NC[C@H](CCCCN2C[C@H](Cc3ccccc3)N(CCc3ccccc3)C(=O)C2=O)N(CCC2CCCCC2)C1=O | inconclusive: 8.91 µM [activator, partial curve, poor fit] | –
16 | C#CCOCCOCCOCCNc1nc(N2CCN(C(=O)CCCCCCCCCCNC(=O)[C@H](CCCCN)n3cc(CCO)nn3)CC2)nc(N2CCN(C(=O)CCCCCCCCCCNC(=O)[C@H](CCCN=C(N)N)n3cc(C[C@@H](C)CC)nn3)CC2)n1 | inconclusive: 14.1 µM [activator, partial curve, poor fit] | –
17 | COc1cccc(NC(=O)C2CCN(S(=O)(=O)c3ccc4[nH]c5c(c4c3)CCCCC5)CC2)c1 | inconclusive: 50.1 µM [activator, single point] | –
18 | CCC(C)NC(=O)c1c(C)oc2nc(C)nc(N3CCOCC3)c12 (stereo unspecified) | – | inactive: -18.6%
19 | CCCCc1ccc(N2C(=O)[C@@H]3C(CC(N)=O)NC4(C(=O)Nc5ccc(F)cc54)[C@@H]3C2=O)cc1 (stereo partly specified) | inconclusive: 35.5 µM [activator, single point] | –
20 | CC1(C(=O)NCc2cccc3ccccc23)CCN1C(=O)Cc1ccc(-c2ccccc2)cc1 (stereo unspecified) | inconclusive: 25.1 µM [activator, single point] | –
21 | COC(=O)c1ccc(C2CC(=O)NC3=C2C(=O)CCC3)cc1 (stereo unspecified) | – | inactive: 0.189%

Row | SMILES | Potency | growth rescue (activation)
22 | CCOc1cc(C(=O)NCc2ccccc2)ccc1OCC(=O)N1CCCCC1 | inconclusive: 10 µM [activator, single point] | –
23 | OC(c1ccc(F)c(F)c1)c1nc(-c2cnc3ccccc3c2)cs1 (stereo unspecified) | – | inactive: 43.5%
24 | N#C/C(=C\c1c(Cl)cccc1Cl)c1nc2ccccc2[nH]1 | – | inactive: 22.3%
25 | CCN1CCCCC(NC(=O)COCc2ccccc2)C1=O (stereo unspecified) | – | inactive: -10.2%
26 | Cc1ccc(C)c(N2CCN(C(=O)c3ccc(Cl)c(NC4=NC5CS(=O)(=O)CC5S4)c3)CC2)c1 (stereo unspecified) | inconclusive: 50.1 µM [activator, single point] | –
27 | COc1ccc(-c2c[n+](CC(=O)c3cccs3)c3n2CCC3)cc1 | – | inactive: 21.5%
28 | COc1ccc(N(CC(=O)Nc2ccccc2OC)S(=O)(=O)c2ccc(OC)c(OC)c2)cc1 | inconclusive: 28.2 µM [activator, single point] | –
29 | Cc1csc(SCC(=O)Nc2sccc2C(N)=O)n1 | inconclusive: 28.2 µM [activator, partial curve, poor fit] | –
30 | CCn1c(SCC(=O)N(C(C)C)C(C)C)nnc1-c1cc2ccccc2cc1O | inconclusive: 22.4 µM [activator, partial curve] | –
31 | COC(=O)[C@]12C[C@H](CC(=O)N3CCN(C(=O)C4CC4)CC3)C(=O)N(CCC3=CCCCC3)C1=C[C@H](C(C)C)O[C@@H]2C1CC1 | inconclusive: 22.4 µM [activator, single point] | –
32 | Cc1cc(C)cc(C(=O)NCCc2sc(-c3ccc(F)cc3)nc2C)c1 | – | inactive: 8.78%
33 | O=C(COC(=O)c1cc2c(s1)CCC2)Nc1ccc(F)cc1 | inconclusive: 20 µM [activator, partial curve, poor fit] | –
34 | O=C(c1cc(-c2ccccc2)on1)N(Cc1cccnc1)C(c1ccccn1)c1nc2ccccc2[nH]1 (stereo unspecified) | inconclusive: 15.8 µM [activator, partial curve, poor fit] | –
35 | Cc1cccc(NC(=O)CSc2nc3n[nH]c(C)c3c(=N)n2-c2cccc(Cl)c2)c1 | – | inactive: -3.46%
36 | CC1(C(=O)NS(=O)(=O)Cc2ccccc2)CCN1C(=O)Cc1ccc(-c2ccccc2)cc1 (stereo unspecified) | inconclusive: 14.1 µM [activator, partial curve, poor fit] | –
37 | CN(C)c1cccc2c1c(NS(=O)(=O)c1cn(C)cn1)nn2C | inconclusive: 35.5 µM [activator, single point] | –
38 | CCCC(NC(=S)NCC1CCCO1)C12CC3CC(CC(C3)C1)C2 (stereo unspecified) | – | inactive: 1.85%
39 | Cc1ccc(NS(=O)(=O)c2ccc(C(=O)N3CCN(S(=O)(=O)c4ccccc4)CC3)cc2)cc1 | inconclusive: 50.1 µM [activator, single point] | –
40 | Cc1sc2ncnc(N3CCC(C(=O)NNC(=O)COc4ccc(Br)cc4)CC3)c2c1C | inconclusive: 44.7 µM [activator, single point] | –
41 | Cn1c(=O)c2c(nc(CN3CCN(c4ccccc4F)CC3)n2Cc2ccc(F)cc2)n(C)c1=O | inconclusive: 20 µM [activator, partial curve] | –
42 | C[C@@H]1CN([C@H](C)CO)C(=O)c2cc(-c3ccc(F)cc3)cnc2O[C@H]1CN(C)C(=O)c1ccc(F)cc1 | inconclusive: 25.1 µM [activator, partial curve] | –

Row | SMILES | Potency | growth rescue (activation)
43 | N#Cc1c(N2CCN(C(=O)c3ccco3)CC2)nc(-c2ccccc2)c2c1CCCC2 | inconclusive: 50.1 µM [activator, partial curve, poor fit] | –
44 | O=C(O)C1CCN(C(=O)CSc2nc3cc(Cl)ccc3c(=O)n2Cc2ccccc2)CC1 | inconclusive: 35.5 µM [activator, partial curve, poor fit] | –
45 | CCCOc1ccc(C(=O)N2CCC(c3nc4ccccc4s3)CC2)cc1 | inconclusive: 28.2 µM [activator, single point] | –
46 | Cc1cccc(C)c1-n1nnnc1C(c1ccnc2ccccc12)N(Cc1ccccc1)Cc1ccccc1 (stereo unspecified) | – | inactive: -1.89%
47 | O=C(NC1CCCCC1)C(c1ccc2ncccc2c1)N(Cc1ccco1)C(=O)c1ccc2c(c1)OCCO2 (stereo unspecified) | inconclusive: 10 µM [activator, full curve] | –
48 | COC(=O)c1ccc(N2C(c3cc(OC)cc(OC)c3)=Cc3ccc(-c4cccnc4)cc3C2CC(=O)C2CC2)cc1 (stereo unspecified) | inconclusive: 50.1 µM [activator, single point] | –
49 | COC(=O)N1C(=O)[C@](c2ccc(OC)cc2)(C(C)C)N1C(=O)OC | – | inactive: 14.6%
50 | CCCCC[C@@H]1C=C(C(=O)O)[C@H](c2ccc(Cl)cc2)N1S(=O)(=O)c1ccc(C)cc1 | inconclusive: 22.4 µM [activator, single point] | –
51 | COC(=O)c1ccc(Cn2c(C)c(C(=O)NCc3ccc(Cl)c(Cl)c3)sc2=O)o1 | inconclusive: 39.8 µM [activator, single point] | –
52 | COc1ccc(C(=O)Nc2ccc(N3CCCCCC3)cc2)cc1S(=O)(=O)N1CCOCC1 | inconclusive: 14.1 µM [activator, partial curve, poor fit] | –
53 | CCOC(=O)N1CCC2(CC1)C(C#N)=C(N)Oc1c2c(C)nn1-c1cccc(Cl)c1 | inconclusive: 35.5 µM [activator, partial curve, poor fit] | –
54 | COc1cnc(SCC(=O)O)[nH]c1=O | – | inconclusive: 66.8% [activator]
55 | Cc1c(C(=O)Nc2ccc(Oc3ccccc3)cc2)sc2nc3n(c(=O)c12)CCC3 | inconclusive: 28.2 µM [activator, single point] | –
56 | CCCCCCCCN1C(=O)[C@H](CC(=O)NCCCC)C[C@@]2(C(=O)OCC)CCCC=C12 | inconclusive: 4.47 µM [activator, full curve, poor fit] | –
57 | COc1ccc(NC(=O)C2(C)CCN2CCOc2ccccc2)cc1OC (stereo unspecified) | – | inactive: -8.82%
58 | CC(=O)c1cccc(NC(=O)C2Cc3c(-c4cccc(F)c4)ccnc3O2)c1 (stereo unspecified) | inconclusive: 44.7 µM [activator, single point] | –
59 | Cc1ccccc1CNC(=O)CCC(=O)N1CCSc2ccccc21 | – | inactive: 0.897%
60 | Cc1ccc(-c2cc3ncc4c(n3n2)-c2cc(Cl)ccc2OC4)cc1 | – | inactive: 7.07%
61 | COc1ccc(CCNCc2c(C(=O)O)c(C)n(Cc3cccc(Cl)c3)c2C)c(OC)c1OC | – | inactive: 9.21%
